# Measurements: PubChem BioAssay AID463173 (ICCB-Longwood Screening Facility, Harvard Medical School, 2010)
# Hit rate of the full screen: of about 52,000 compounds, about 1,700 (3.3%) were called active. Cut-off read from the data, not from the text of the source: active = survival mostly below about 52% (no sharp cut-off); inactive = mostly above about 56%. The list shows a part of the results.
# System: Wild type
# Assay: S. aureus survival, RN4220 and DeltatarO strains – OD600, teichoic acid synthesis inhibitors, primary screen (AID 463173)
# Conditions: S. aureus RN4220 wild type/DeltatarO growth, OD600, 18 h, active compounds read low, screened at 18.75 µg/mL (by protocol)
row,Structure (SMILES),survival
1,Cc1nn(C)c2c1c(C(F)(F)F)cc(=O)n2C(C)C(=O)N1CCN(c2ccccc2)CC1 (stereo unspecified),inactive: 93%
2,Cn1cc(S(=O)(=O)N2CCCCCC2)cc1C(=O)N1CCN(c2ccc(Cl)cc2)CC1,inactive: 77%
3,Clc1ccc(CCNC(c2cccc(Cl)c2)c2nnc(-c3ccccc3)o2)cc1 (stereo unspecified),active: 5%
4,Cn1c(=O)c2c(ncn2CC(=O)Nc2cc(Cl)cc(Cl)c2)n(C)c1=O,inactive: 84%
5,CCOC(=O)c1c(C)[nH]c(C)c1S(=O)(=O)N1CCN(c2ccccc2OC)CC1,inactive: 124%
6,COc1ccc(Cl)cc1NC(=O)CSc1nc2ccccc2nc1N1CCCCC1,active: -9%
7,CC1=C(C(=O)Nc2ccccc2)C(c2ccccc2Cl)n2ncc(C(=O)Nc3cccc(C)c3)c2N1 (stereo unspecified),inactive: 72%
8,CCOC(=O)c1c(C)oc2ncnc(N3CCN(c4cccc(Cl)c4)CC3)c12,inactive: 115%
9,COc1cc(/C=C/c2nc(C#N)c(NC(C)c3ccccc3)o2)cc(OC)c1OC (stereo unspecified),inactive: 68%
10,O=C(O)CCc1ccc(-c2ccccc2)n1-c1cccc(Br)c1,inactive: 60%
11,CCOc1ccc(CNC(=O)Cn2c(=O)c3cccn3c3ccc(F)cc32)cc1OC,inactive: 100%
12,O=C(CCCCn1c(=O)c2ccccc2n(CC(=O)Nc2cccc(F)c2)c1=O)NCc1ccccc1Cl,inactive: 89%
13,CN(Cc1ccccc1)C(=O)c1cc2c(s1)-c1ccc(Cl)cc1SC2,inactive: 86%
14,CCCCN(C)CCNC(=O)Cn1ncc2c([nH]c3ccccc32)c1=O,active: 0%
15,Cc1ccc(NC(=O)CCSc2nc(-c3ccc4c(c3)OCO4)cc(C(F)(F)F)n2)cc1,inactive: 80%
16,Cc1ccc(CNC(=O)Cn2c(=O)n(-c3ccccc3)c(=O)c3c2c2cc(C)ccc2n3C)cc1,inactive: 67%
17,CCc1ccc(Oc2nc3c(C)cccn3c(=O)c2/C=C(\C#N)c2nc3ccccc3s2)cc1,inactive: 70%
18,O=C(c1ccc(Cl)cc1)n1nc(-c2ccco2)nc1NCc1cccs1,inactive: 87%
19,CCN(CC)CCNc1c2c(nc3cc(-c4ccc(OC)c(OC)c4)nn13)CCC2,inactive: 108%

row,Structure (SMILES),survival
1,CCOC(=O)CCN(c1ccccc1)S(=O)(=O)c1ccc2[nH]c(=O)ccc2c1,inactive: 69%
2,COc1cccc(N(Cc2nnc3n2CCCCC3)C(=O)Nc2cccc(Cl)c2)c1,inactive: 55%
3,CCOCCCNC(=O)CN1C(=O)c2c(c3ccccc3n2C)C1c1ccc(OC)cc1 (stereo unspecified),inactive: 69%
4,COc1ccc(CCCc2nnc(SCC(=O)Nc3ccccc3F)o2)cc1C,inactive: 67%
5,Cc1ccc(-n2ncc3c(N(CCO)Cc4ccccc4)ncnc32)cc1,active: 0%
6,CCOc1ccccc1NC(=O)N1CCCn2nc(C)cc21,inactive: 75%
7,O=C(NCC(c1cccs1)S(=O)(=O)c1cccs1)c1ccc(C(F)(F)F)cc1 (stereo unspecified),inactive: 72%
8,O=C(O)CC1c2ccccc2Oc2ccccc21,inactive: 129%
9,O=C(Cc1csc2nc(-c3ccccc3)cn12)NCc1ccc(F)cc1,inactive: 72%
10,O=C(O)c1cccc(-n2cccc2)c1,inactive: 103%
11,Cc1ccc(NC(=O)CCc2c(C)nn(-c3ccc(N4CCOCC4)nn3)c2C)cc1F,inactive: 120%
12,COc1ccc(N(C(=O)COc2ccc(Br)cc2)S(=O)(=O)c2ccc(C)cc2)cc1,inactive: 87%
13,CCOC(=O)c1c(S(=O)(=O)N2CCCC(C(=O)Nc3ncccc3C)C2)c(C)n(C)c1C (stereo unspecified),inactive: 71%
14,O=C(OCc1ccccc1Cl)c1ccc(-c2nnn(Cc3ccccc3Cl)n2)cc1,inactive: 62%
15,CNC(=O)N(O)C1N(c2ccccc2)C(=S)SC1(C)C (stereo unspecified),inactive: 109%
16,COc1ccc(Cn2ccc3nc(C)c(C(=O)Nc4ccc(OC)cc4OC)cc3c2=O)cc1,active: 0%
17,Cc1ccc(NC(=O)Cn2cc(S(=O)(=O)NC(C)C)c(S(=O)(=O)NC(C)C)c2)cc1Cl,inactive: 74%
18,Cc1ccc(NC(=O)Cn2c(=O)n(CCc3ccccc3)c(=O)c3c4c(sc32)CCCC4)cc1C,inactive: 95%
19,Cc1ccc(C)c(CN2C(=O)c3ccccc3S(=O)c3ccc(C(=O)NCc4ccco4)cc32)c1 (stereo unspecified),inactive: 93%

row,Structure (SMILES),survival
1,COc1ccc(CNC(=O)Cn2ccc3cc(S(=O)(=O)N4CCCCCC4)ccc32)c(OC)c1,inactive: 159%
2,Cc1ccc(N2CC(NC(=O)/C=C\c3ccc4c(c3)OCO4)CC2=O)cc1 (stereo unspecified),inactive: 63%
3,O=C(C1CC1)N1CCc2cc(Br)cc(S(=O)(=O)N3CCN(c4ccccc4F)CC3)c21,inactive: 75%
4,COc1ccc(Oc2nc3c(c(=O)n(Cc4ccccc4Cl)c(=O)n3C)n2C)cc1,inactive: 66%
5,COC(=O)c1c(SCC(=O)Nc2ccccc2OC)[nH]c2ccccc2c1=O,inactive: 66%
6,Cc1cc2ccccc2n1-c1ccc(C(=O)N2CCC(C(=O)NCc3ccc(F)cc3)CC2)s1,active: 1%
7,CC(C)n1c(=O)c2oc3ccccc3c2n(Cc2ccccc2F)c1=O,inactive: 78%
8,Cc1ccc(-c2nnc(Nc3ccc(O)cc3)c3ccccc23)cc1S(=O)(=O)NCC1CCCO1 (stereo unspecified),inactive: 70%
9,COc1cccc(NC(=O)c2ccc(CNS(=O)(=O)c3ccc4c(c3)C(C)(C)C(=O)N4C)cc2)c1,inactive: 78%
10,O=C(/C=C/c1ccco1)Nc1ccc(Cl)c(-c2nc3cc(Cl)ccc3o2)c1,inactive: 68%
11,Cc1c(Cl)cccc1NC(=O)CSc1cc(-c2ccccc2)ncn1,inactive: 84%
12,Cc1ccc(NC(=O)C2CCN(c3nn4c(=O)cc(C)nc4s3)CC2)cc1,inactive: 89%
13,CC12CN3CC(C)(CN(C1)C3c1ccc(OCc3ccccc3)cc1)C2=O (stereo unspecified),inactive: 90%
14,CCOC(=O)c1cccc(NC(=O)CCNS(=O)(=O)c2cccc3nonc23)c1,inactive: 69%
15,CN(C)c1cccc(C(=O)Nc2ccc(-c3nc4ccccc4s3)cc2)c1,inactive: 124%
16,O=C(CSc1nc2c(oc3ccccc32)c(=O)[nH]1)Nc1cccc(Cl)c1,inactive: 63%
17,CC1=C(c2ccc(Cl)cc2)S(=O)(=O)NC1=NCc1ccc(C)cc1,inactive: 85%
18,COc1ccc(-c2nc3scc(CCNS(=O)(=O)c4cccc(C(C)=O)c4)n3n2)cc1,inactive: 71%
